Measurements as given in the antibiotic and cytotoxicity screens of Wong et al. (2023).
This is one part of the list.

Columns and labels:
HSkMC = human skeletal muscle cells; test: cytotoxicity call (relative viability < 0.9); details: 10 µM
HepG2 = test: cytotoxicity call (relative viability < 0.9); details: 10 µM
S. aureus RN4220 = test: growth inhibition call (relative growth <= 0.2); details: 50 µM

Cc1noc(C)c1S(=O)(=O)Nc1ccc2c(c1)C(=O)N([C@@H](C)CO)C[C@H](C)[C@@H](CN(C)S(=O)(=O)c1ccc(Cl)cc1)O2
inactive: cytotoxicity call (HSkMC) | cytotoxicity call (HepG2) | growth inhibition call (S. aureus RN4220)

Cc1[nH]c(=O)[nH]c(=O)c1S(=O)(=O)N1CCC(C(=O)NCCC(C)C)CC1
inactive: cytotoxicity call (HSkMC) | cytotoxicity call (HepG2) | growth inhibition call (S. aureus RN4220)

Cc1ccc(S(=O)(=O)N(C)C[C@H]2Oc3ncc(-c4ccncc4)cc3C(=O)N([C@H](C)CO)C[C@H]2C)cc1
inactive: cytotoxicity call (HSkMC) | cytotoxicity call (HepG2) | growth inhibition call (S. aureus RN4220)

C[C@@H]1CCCCO[C@H](CN(C)C(=O)Nc2ccccc2)[C@H](C)CN([C@H](C)CO)C(=O)c2cc(NC(=O)c3ccncc3)ccc2O1
inactive: cytotoxicity call (HSkMC) | cytotoxicity call (HepG2) | growth inhibition call (S. aureus RN4220)

C[C@@H]1CN([C@H](C)CO)C(=O)c2cc(NC(=O)Cc3ccccc3)ccc2O[C@H]1CN(C)S(=O)(=O)c1cn(C)cn1
inactive: cytotoxicity call (HSkMC) | cytotoxicity call (HepG2) | growth inhibition call (S. aureus RN4220)

Cc1noc(C)c1S(=O)(=O)N(C)C[C@@H]1OCCCC[C@H](C)Oc2ccc(NC(=O)Nc3cccc4ccccc34)cc2C(=O)N([C@H](C)CO)C[C@@H]1C
inactive: cytotoxicity call (HSkMC) | cytotoxicity call (HepG2) | growth inhibition call (S. aureus RN4220)

Cl.OC(CNCC(O)C1CCc2cc(F)ccc2O1)C1CCc2cc(F)ccc2O1 (stereo not given)
inactive: cytotoxicity call (HSkMC) | cytotoxicity call (HepG2) | growth inhibition call (S. aureus RN4220)

COCC(=O)N(C)C[C@@H]1Oc2cc(C#CCN(C)C)ccc2S(=O)(=O)N([C@H](C)CO)C[C@@H]1C
inactive: cytotoxicity call (HSkMC) | cytotoxicity call (HepG2) | growth inhibition call (S. aureus RN4220)

COc1cccc(NC(=O)N[C@H]2CC[C@@H](CC(=O)N3CCOCC3)O[C@@H]2CO)c1
inactive: cytotoxicity call (HSkMC) | cytotoxicity call (HepG2) | growth inhibition call (S. aureus RN4220)

C[C@H]1CCCCO[C@H](CN(C)C(=O)Nc2cccc3ccccc23)[C@@H](C)CN([C@@H](C)CO)C(=O)c2cc(N(C)C)ccc2O1
inactive: cytotoxicity call (HSkMC) | cytotoxicity call (HepG2) | growth inhibition call (S. aureus RN4220)
